These results are taken from PMC7819943, “Rice protein-binding microarrays: a tool to detect cis-acting elements near promoter regions in rice”.

Some of the results follow.

The target of this assay is T1, OsWOX13 (Oryza sativa, UniProt Q5QMM3 1-267).
T1 sequence: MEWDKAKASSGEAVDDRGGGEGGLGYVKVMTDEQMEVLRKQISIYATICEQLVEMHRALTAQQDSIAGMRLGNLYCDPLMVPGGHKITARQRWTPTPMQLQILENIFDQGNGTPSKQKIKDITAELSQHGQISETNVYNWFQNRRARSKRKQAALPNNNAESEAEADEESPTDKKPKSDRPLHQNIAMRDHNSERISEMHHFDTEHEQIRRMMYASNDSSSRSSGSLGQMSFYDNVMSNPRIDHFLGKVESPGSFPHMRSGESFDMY
Description: protein-binding microarray (RPBM); PBS, 2% BSA, 51.3 ng/ul salmon testes DNA, 50 uM zinc acetate, 200 nM TF, 25 C, 1 h; high values mean tight binding. The following applies: protein: recombinant; tags: N-terminal polyhistidine and DsRed monomer fusion (pET32a); label: CyDye5-dUTP incorporated in the synthesized complementary strand; 3' TTTTT single-stranded linker to array surface; dsDNA, one strand shown. In short, it runs like this:
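Binding signal is defined as the fluorescence intensity of each feature in arbitrary units, read on an Axon 4000B scanner. Transcription factors with N-terminal polyhistidine and DsRed fusions came from E. coli BL21-CodonPlus and were purified on Ni–NTA. They were incubated at 200 nM for 1 h at 25 °C on a custom Agilent array that had been made double-stranded with Cy5-dUTP, with 50 µM zinc acetate present, and the array was washed.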
Turning to “CAAATTAGGTGTGATGACAATTGTACTACTTATGAACCGTCGGAGTCACCTAGTGCAG”, the binding signal was 13400 fluorescence intensity (a.u.).

On to “TTTATTAATTAAAACTCAATTAATAACACGTTATTACCACCGGAGTCACCTAGTGCAG”, for which the binding signal is 20600 fluorescence intensity (a.u.).

As to “TGGATTGACAAAGTCACAAAACTACAGCGCACCAGTGAGCCGGAGTCACCTAGTGCAG”, the binding signal was 20200 fluorescence intensity (a.u.).

For “ATCCAATCATAACCCTCCACCACTCACTTCTACCTACTTTCGGAGTCACCTAGTGCAG”, the binding signal is 6040 fluorescence intensity (a.u.).

As to “TCCACTCGTCTTAATTAGTCTCCACCAATTCTCTCTTTCTCGGAGTCACCTAGTGCAG”, the binding signal is 6350 fluorescence intensity (a.u.).

In the case of “CCCAATTAACTCTCAGTCTCGTTGGGCCACACGCAAAGCACGGAGTCACCTAGTGCAG”, the binding signal was 9690 fluorescence intensity (a.u.).

With “AAATGATTGGAGCTAATAGTTGGCTATACTATTAAACTTGCGGAGTCACCTAGTGCAG”, the binding signal is 44000 fluorescence intensity (a.u.).

Regarding “CTAGCAATTATTATCTAGAGTATTTTAAGTATCACGCAAACGGAGTCACCTAGTGCAG”, the binding signal was 3700 fluorescence intensity (a.u.).

Turning to “TTAAATAGAATGCTGACTGAACTGTCACGTGTAGACCAAACGGAGTCACCTAGTGCAG”, the binding signal was 23400 fluorescence intensity (a.u.).

Consider “CATTCTTGGGGATTGACTAAGCAAACCATTAGGGTGCCGGCGGAGTCACCTAGTGCAG”, for which the binding signal is 5380 fluorescence intensity (a.u.).

On to “TTTAATTTTAGCGTGAACCAAACTTTATCGCACGGTGCTACGGAGTCACCTAGTGCAG”, for which the binding signal is 7490 fluorescence intensity (a.u.).

Regarding “TACGTTAATTTATACTGCGTTTCACAGTGCATTTAGTGGACGGAGTCACCTAGTGCAG”, the binding signal was 29600 fluorescence intensity (a.u.).

“ACTCGAAATTTGTTGGGAACTCATCAGAGATAGACTGGAGCGGAGTCACCTAGTGCAG”: the binding signal is 3700 fluorescence intensity (a.u.).

As to “ATAAAATTATCTATTCCACATAAATTTCAAAAGATATGATCGGAGTCACCTAGTGCAG”, the binding signal is 5590 fluorescence intensity (a.u.).

On to “CCGTTTGATTTGTAACGTAACCTGTGTGTTACATTGTCAGCGGAGTCACCTAGTGCAG”, for which the binding signal is 34500 fluorescence intensity (a.u.).

Regarding “CTGTCAATCCCATTCCCATTCCCATTCCCATTCCCTCCCCCGGAGTCACCTAGTGCAG”, the binding signal was 6860 fluorescence intensity (a.u.).

Regarding “CAAGACGTAGCTGATTTGAATTAATCAAGAGAAGCTTGTGCGGAGTCACCTAGTGCAG”, the binding signal was 11400 fluorescence intensity (a.u.).

“ACCTGGCAATCACTCAACAAACAACAAATCCAAGTGTACGCGGAGTCACCTAGTGCAG”: the binding signal was 9850 fluorescence intensity (a.u.).

As for “CAGATAATTAGCTACCTGTTTAATAGATCATCTTGATCATCGGAGTCACCTAGTGCAG”, the binding signal was 53400 fluorescence intensity (a.u.).

For the sequence “CCCTAATTTCTCAGCCCGGCTGTATGATAAATCTGAAATGCGGAGTCACCTAGTGCAG”, the binding signal was 8460 fluorescence intensity (a.u.).

Consider “AGTCAACACTTAAATTAATAAGATTAGCCCCATGTAGTATCGGAGTCACCTAGTGCAG”, for which the binding signal is 3500 fluorescence intensity (a.u.).

Turning to “GTCAAAATGTCACTTAATTTAGTATCGAATGGTTGCAAGTCGGAGTCACCTAGTGCAG”, the binding signal was 8250 fluorescence intensity (a.u.).

In the case of “GTCTACTTCTAAATTTGTATTAGTTAACTCTTTAATTCGTCGGAGTCACCTAGTGCAG”, the binding signal is 3260 fluorescence intensity (a.u.).

With “TAATCATTTTCTATCACAGGTTTAAACAGAATCAACTTGTCGGAGTCACCTAGTGCAG”, the binding signal is 4020 fluorescence intensity (a.u.).

Turning to “TCTTGGACTGATTAATCGATTGGTTGATTTCTATCCCTCACGGAGTCACCTAGTGCAG”, the binding signal is 32300 fluorescence intensity (a.u.).

As to “AGTGACCAATCATTAGGTGATAAATCCCATATGCTTTTGTCGGAGTCACCTAGTGCAG”, the binding signal is 10800 fluorescence intensity (a.u.).

On to “TTGTTAATTGAGTGTGAAAGAGAGATGTTTTGCTTCAGCTCGGAGTCACCTAGTGCAG”, for which the binding signal is 44400 fluorescence intensity (a.u.).

On to “AGACAAATCTTTTGAGTCTAATTACGTCATGATTTGACCACGGAGTCACCTAGTGCAG”, for which the binding signal is 13400 fluorescence intensity (a.u.).

Consider “AATTAATTTATAGCTCACTATTATCTATGCTATAAGGCAGCGGAGTCACCTAGTGCAG”, for which the binding signal is 28800 fluorescence intensity (a.u.).

Take “GTGGTTTGATTAATACTCCTACAAAGCAAGCATGCATGTGCGGAGTCACCTAGTGCAG”: the binding signal is 6260 fluorescence intensity (a.u.).

For “CCATAGTAATTTCAAATGATTGGATAGGATTTAATCCTTTCGGAGTCACCTAGTGCAG”, the binding signal is 33800 fluorescence intensity (a.u.).

With “CTATTAATAAATATATATGATTATACTGAAGTAATTTTCACGGAGTCACCTAGTGCAG”, the binding signal is 8300 fluorescence intensity (a.u.).

For “CATATTAAATTTATCATATATTTCTCATTTCATGTGTGGCCGGAGTCACCTAGTGCAG”, the binding signal is 16500 fluorescence intensity (a.u.).

For the sequence “TTGTAATTACTTCATCCTGAATTTTCTCTGAACCCACAATCGGAGTCACCTAGTGCAG”, the binding signal was 22400 fluorescence intensity (a.u.).

“CTAAAATGAATAAAACTAGTACTACAAATTTAGAACGGTACGGAGTCACCTAGTGCAG”: the binding signal is 4180 fluorescence intensity (a.u.).

As to “CTCATGATTTACGGCTGCTGGCCGCCGGGCTATTTAACCACGGAGTCACCTAGTGCAG”, the binding signal was 10900 fluorescence intensity (a.u.).

“CGAACATTAATTACCAAGGTACAAAACCGAATCGCCCCTACGGAGTCACCTAGTGCAG”: the binding signal is 11400 fluorescence intensity (a.u.).

On to “GTATCAATACACCTTTATTGATAATTAGATCTTTGGTTCTCGGAGTCACCTAGTGCAG”, for which the binding signal was 11100 fluorescence intensity (a.u.).

With “CAAATCAGTTGATTTCTTCCCTAAACGGTATAAACGCCTGCGGAGTCACCTAGTGCAG”, the binding signal is 5200 fluorescence intensity (a.u.).

With “CATAATTACTTCATGGACCTGTGGTGCTTAGCTATATTCTCGGAGTCACCTAGTGCAG”, the binding signal is 16100 fluorescence intensity (a.u.).

As to “ATGTTACTTGATTAATTACATGCCGCTTGCGTAACTACTTCGGAGTCACCTAGTGCAG”, the binding signal is 22000 fluorescence intensity (a.u.).

For the sequence “TCAAAATTGGAAGTTTTGTTGAAATTGAAACAATGTGATGCGGAGTCACCTAGTGCAG”, the binding signal was 19500 fluorescence intensity (a.u.).
